In the supplement of paper PMC3334620:
In all, about 33,000 sequences were measured (“E-score (-0.5 to 0.5)”: median about -0.016, highest 2% from about 0.32 on). Some of the results follow.

target: T1, Stp1 (UniProt B3LFK1); experiment: PBM E-score (8-mer binding enrichment) (E-score (-0.5 to 0.5)); higher = stronger / more preferred TF binding; most listed sequences are background and not binding sites; settings: protein concentration: 200 nM; construct: GST-full length
T1 sequence: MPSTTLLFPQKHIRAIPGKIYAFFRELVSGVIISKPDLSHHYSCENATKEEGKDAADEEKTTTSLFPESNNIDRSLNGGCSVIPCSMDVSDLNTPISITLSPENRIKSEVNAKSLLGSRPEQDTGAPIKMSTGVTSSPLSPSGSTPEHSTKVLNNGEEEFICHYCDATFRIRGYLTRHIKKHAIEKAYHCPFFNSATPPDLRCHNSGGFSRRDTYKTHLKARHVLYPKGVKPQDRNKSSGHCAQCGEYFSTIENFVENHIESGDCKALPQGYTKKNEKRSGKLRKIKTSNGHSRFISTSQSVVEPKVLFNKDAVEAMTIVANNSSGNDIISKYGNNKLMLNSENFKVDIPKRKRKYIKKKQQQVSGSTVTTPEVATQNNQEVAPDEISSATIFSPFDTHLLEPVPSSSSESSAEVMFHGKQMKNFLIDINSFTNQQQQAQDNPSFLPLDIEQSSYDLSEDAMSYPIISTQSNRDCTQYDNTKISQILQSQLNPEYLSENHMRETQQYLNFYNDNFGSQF
Experimental: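 Universal 'all 10-mer' protein binding microarrays (Agilent AMADID 015681) probed with GST-tagged S. cerevisiae TFs (full-length or DBD) made by in vitro transcription/translation (PURExpress), about 100-200 nM. Bound TF was detected with fluorescent anti-GST. Each ungapped 8-mer (which stands for itself and its reverse complement) is scored by the PBM enrichment score (E-score), a modified Wilcoxon-Mann-Whitney statistic from -0.5 to +0.5, computed with the Universal PBM Analysis Suite. Scale: above 0.35 generally sequence-specific binding.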

Row | Sequence | PBM E-score
1 | CATATAGG | -0.0961
2 | TACTGACA | 0.0845
3 | CTCTATAA | 0.0291
4 | ACTGTGAT | -0.149
5 | ACCGGCGA | 0.134
6 | AAACCAGC | 0.0714
7 | GAAGTGGA | -0.0297
8 | TAGCGGCA | 0.291
9 | GGGAGGAA | -0.186
10 | CTCGTAGA | -0.125
11 | AGCTTACA | 0.0627
12 | CGATTCCG | -0.0394
13 | GTCCCTTA | -0.0535
14 | TGGTGCAA | -0.147
15 | ATTGGCCA | -0.0253
16 | GGAAAGCC | 0.0616
17 | ATGAATGA | -0.0109
18 | CCCATGAG | -0.332
19 | GTGATCGA | -0.0266
20 | CGGTCTTC | -0.159
21 | GGAGTATA | 0.0122
22 | CCGGACAA | 0.0207

Row | Sequence | PBM E-score
23 | AACGCGGC | 0.443
24 | GACCTCCA | -0.0836
25 | TCCGGCGA | 0.1
26 | CTGACTAC | -0.147
27 | ACTAAACG | 0.062
28 | GTACGCCA | -0.175
29 | ACCGTACA | 0.117
30 | GAAGATGA | -0.16
31 | GAGAGCTA | -0.111
32 | AACGACGA | 0.159
33 | ATAGGTGG | -0.109
34 | ACTTAAGG | 0.0883
35 | ACGGCGCT | 0.481
36 | ACTCAACG | 0.0273
37 | ATTGACCC | -0.104
38 | CGCATCAA | 0.107
39 | AAAATGGT | 0.139
40 | AAGATCTG | 0.105
41 | CTCCCAAA | -0.0217
42 | AAACAAAC | 0.124
43 | AACAAGGG | -0.122
44 | ATATTTCA | 0.101

Row | Sequence | PBM E-score
45 | ACCCCAAA | -0.0783
46 | CCTAAATA | -0.0206
47 | AGCACCTC | -0.238
48 | CATTCCGA | 0.123
49 | CTGATAGC | -0.084
50 | GGCTCATA | 0.0977
51 | TACGACGA | 0.0149
52 | GGGGCCCA | -0.298
53 | CAAATCAG | 0.115
54 | AGCAGTCA | -0.272
55 | CCGAAATA | 0.0974
56 | CCTGTTTC | -0.152
57 | ATTGAAAG | 0.025
58 | CGCCACAG | -0.0135
59 | TTATAGAA | 0.218
60 | AGGCCCAA | 0.0132
61 | AAATACCG | 0.095
62 | AAGAGCTG | 0.00257
63 | CACGTCCC | -0.196
64 | AGGTTGAA | 0.00415
65 | TGTAGGAA | 0.0767
66 | ACATCCCT | -0.172

Row | Sequence | PBM E-score
67 | ATGTCCTA | -0.124
68 | TATCGGGA | -0.0286
69 | AGTTAGTG | -0.0796
70 | AAATAGAT | 0.0937
71 | TGCCAACA | -0.0516
72 | TATCCATA | -0.0071
73 | GCCGCATA | 0.457
74 | CCTGCAGC | -0.209
75 | CCGTTACA | 0.0835
76 | AAACCGTG | -0.0289
77 | ACTTTTGG | -0.0182
78 | CTGCGCAC | -0.0533
79 | AAGGCCAT | 0.0825
80 | GTGGGGAA | -0.0367
81 | CCTCTTGA | 0.027
82 | GGCCTGTA | -0.183
83 | AGAACCAC | -0.24
84 | ACGATCGT | -0.0636
85 | GTGTGTAA | 0.0522
86 | ATCATGCA | -0.107
